Assay results published in PubChem BioAssay AID1159614 (National Center for Advancing Translational Sciences (NCATS), 2016).
The whole screen tested about 45,000 compounds, of which about 65 (0.1%) were called active. Calls follow the shape of the dose curve; as a rule, active = well fitted activation curve with a large enough effect; inconclusive = small, poorly fitted or top-dose-only effect; inactive = no such curve, though single readings can be large or run the other way. This is one part of the list.

biological target: Galactocerebrosidase (Homo sapiens) (UniProt P54803); test: A Novel Cell-Based Assay to Identify Small Molecules for B -Galactocerebrosidase; settings: 145M-Twi-hGALC-G270D cells (Twitcher mouse brain line with human GALC G270D), HMU-beta-Gal fluorescence, 48 h; series mostly up to 57.5 µM; activation: at the top concentration; also: 0% is about no effect; nearly all actives have a fitted effect of over 65% in size
Chain of UniProt P54803 (P54803 whole entry, looked up): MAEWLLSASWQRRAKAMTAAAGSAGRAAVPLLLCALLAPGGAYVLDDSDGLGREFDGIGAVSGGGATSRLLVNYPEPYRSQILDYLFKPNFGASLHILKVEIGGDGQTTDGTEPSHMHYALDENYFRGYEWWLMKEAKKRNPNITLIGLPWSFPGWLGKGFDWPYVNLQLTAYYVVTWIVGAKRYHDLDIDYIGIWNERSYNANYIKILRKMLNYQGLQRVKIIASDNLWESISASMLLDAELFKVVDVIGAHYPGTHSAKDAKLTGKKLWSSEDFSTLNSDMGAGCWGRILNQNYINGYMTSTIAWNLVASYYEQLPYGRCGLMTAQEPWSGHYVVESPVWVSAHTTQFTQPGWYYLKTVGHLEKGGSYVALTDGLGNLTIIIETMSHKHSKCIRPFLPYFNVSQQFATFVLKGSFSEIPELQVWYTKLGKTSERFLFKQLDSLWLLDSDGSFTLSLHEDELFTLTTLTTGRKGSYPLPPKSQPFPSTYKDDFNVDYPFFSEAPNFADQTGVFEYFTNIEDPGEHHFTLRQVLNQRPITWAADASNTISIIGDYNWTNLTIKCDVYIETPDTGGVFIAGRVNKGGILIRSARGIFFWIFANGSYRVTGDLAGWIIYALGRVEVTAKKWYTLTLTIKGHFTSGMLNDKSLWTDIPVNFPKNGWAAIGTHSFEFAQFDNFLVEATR
From the text: Lysosomal storage diseases (LSDs) are caused by genetic mutations in genes encoding proteins important for normal lysosomal function. Globoid cell leukodystrophy (GLD), mostly known as Krabbe disease, is a prototype of the neurological LSDs caused by deficiency of beta-galactocerebrosidase (GALC). In brain specimens of GLD patients, psychosine levels are substantially elevated. At elevated concentrations, psychosine becomes cytotoxic to neuronal cells, particularly to oligodendrocytes (OLG), neural cells responsible for myelin formation. Therefore, the biochemical disturbances in GLD are manifested by different degrees of brain demyelination resulting in a broad spectrum of neurological manifestations. Most of the FDA-approved therapies are based on enzyme replacement therapeutic (ERT) agents, which treat non-neurological symptoms of Gaucher disease, Fabry disease, few mucopolysaccharidoses and Pompe disease. Unfortunately, in GLD, a primarily neurological LSD, ERT agents, as large molecular weight molecules unable to cross the blood-brain barrier, which makes this an inefficacious therapeutic approach. In GLD, increasing the residual GALC activity just above the critical threshold (~10% of wild type enzymatic activity), the cytotoxic levels of psychosine will be reduced, avoiding the OLGs apoptosis and the subsequent demyelination process. This will translate in disease stabilization and amelioration of GLD patient symptoms.
A cell-based assay in 1,536-well plate format was developed to implement a quantitative high-throughput screening (qHTS) assay using GLD-disease relevant cells to identify small molecules that produce enhancements of the residual enzymatic activity levels of mutants GALC found and prevalent in GLD patients. Compounds that are active may therefore have some therapeutic application for GLD. After the treatment of live cells for a determined period, using a fluorescent GALC specific substrate, the mutant residual GALC activity is measured. This cell-based qTHS assay was used to screen part of the MLPCN library for small molecule able to increase the mutant GALC enzymatic activity. In this assay, increased fluorescent signal corresponds to enhanced levels of mutant GALC residual enzymatic activity. Activation is the desired outcome for this assay.
NIH Chemical Genomics Center [NCGC]
NIH Molecular Libraries Probe Centers Network [MLPCN]
Assay Submitter (PI): Gustavo Maegawa MD,PhD, University of Florida, Gainesville, FL
2)#Two cell lines were established for the assay: 145M-Twi-hGALC-G270D (brain-derived Twitcher cell line stably expressing human GALC-G270D) and 145M-Twi-hGALC-WT (same 145M-Twi stably expressing human GALC wild type). The Twitcher is the murine C57B/6 model for GLD with naturally occurring homozygous nonsense GALC mutation. The 145M-Twi cell line was established at Maegawa lab (Ribbens J et al 2014).
a.#Media: DMEM/F12 (1:1) with 10% fetal bovine-serum (FBS) with penicillin/streptomycin (PS-1X - 100 I.U./mL of penicillin+100 ug/mL of streptomycin).
b.#The 6-Hexadecanoylamino-4-methylumbelliferyl-b-D-galactoside (HMU-B-gal) substrate was prepared as per Wiederschain et al 1992. Using 20-mL borosilicate tubes, 2.20 mg of HMU-b-Gal was added in each tube to prepare substrate-film with a final air-nitrogen stream evaporation to remove all diluent solvents.
c.#The HMUb-Gal substrate buffer consists of 0.2 M Na2HPO4 (sodium phosphate dibasic)/ 0.1 M Citric Acid with the pH adjusted to 5.2 using HCl. Sodium Azide at 0.02% and Sodium Taurocholate (NaTC) at 1 mg/mL were added to this substrate buffer.
d.#The HMU-b-Gal stopping buffer consist of 0.5 M NaHCO3 (sodium bicarbonate) /0.5 M Na2CO3 (sodium carbonate). […] Triton X-100 at 0.25% was added.
4)#Preparation of HMU-b-Gal substrate tubes
Adding 18.6 mL of the HMUb-Gal substrate buffer to each 20-mL tube (2.20 mg of HMU-b-Gal) will reach a concentration of 0.2 mM. Vortex well the tube until the solution is fully homogenized (clear cloudy solution). […]

activation, inactive:
CCOc1ccc(NC(=O)Cc2ccc(-n3c(C)nc4cccnc43)cc2)cc1 -8.39%, CCOC(=O)C1CCCN(Cc2cn3c(-c4ccc(Br)cc4)nnc3s2)C1 (stereo not given) -15.6%, COc1ccc(C(=O)NNc2ncnc3c2cnn3-c2ccccc2)cc1 -10.9%, CN(C(=O)c1ccc2c(c1)N(Cc1ccccc1F)C(=O)c1ccccc1S2(=O)=O)C1CCCCC1 3.57%, COc1ccc(NC(=O)C(NC(=O)/C=C\c2ccc3c(c2)OCO3)c2ccc(OC)cc2)cc1 (stereo not given) -30.5%, Cc1ccc(NC(=O)CN2C(=O)c3ccccc3Sc3ccc(C(=O)N4CCCC4)cc32)cc1 -8.24%, O=C(Nc1cc(Cl)ccc1Cl)c1cc(S(=O)(=O)N2CCCc3ccccc32)ccc1F -4.4%, CCN(CC)CCNC(=O)c1[nH]c2ccccc2c1Sc1ccc(Cl)cc1 -30.3%, COC(=O)c1c(NC(=O)COc2c(C)ccc(C)c2C)sc2c1CCC(C)C2 (stereo not given) -8.64%, CC1=C(C(=O)Nc2cccnc2)C(c2ccc(Cl)cc2)n2nc(SCc3ccccc3)nc2N1 (stereo not given) -7.06%, Cc1ccc(-n2nc(C(=O)Nc3cccc(C#N)c3)c3c4ccccc4n(C)c3c2=O)cc1 0.235%, Cc1cc2n(n1)CCC(=O)N2Cc1ccc(C(=O)Nc2ccc(Br)c(C)c2)cc1 -13.1%, CCCN1CCN(c2ncnc3sc(C(=O)Nc4cccc(Cl)c4C)c(C)c23)CC1 -15.3%, O=C(NCCc1ccc(Cl)cc1)c1nc(-c2cccc(F)c2)n2c1CCCCC2 -15.9%, CCOc1ccc(NC(=O)[C@H](Cc2ccccc2)N2Cc3ccccc3C2=O)cc1 -0.286%, CCN(CC)c1cc2c(cc1F)c(=O)c(S(=O)(=O)c1ccc(C)cc1)cn2Cc1ccc(F)cc1 -11%, CCCSc1nc2c(c(=O)[nH]1)C(c1ccc(F)cc1F)CC(=O)N2 (stereo not given) -8.87%, O=C(Cn1ncc2ccsc2c1=O)N1CCN(c2ccccc2)CC1 -17%, CCCc1nnc(NC(=O)Cc2coc3ccc(C)cc23)s1 -14.3%, Brc1ccc(CN2CCc3nc(N4CCN(c5ncccn5)CC4)ncc3C2)cc1 -4.07%, O=C(Cn1c(=O)n(CCc2ccccc2)c(=O)c2c3c(sc21)CCCC3)Nc1ccc(F)c(F)c1 -5.26%, CCOc1ccccc1Nc1sc(C(=O)c2ccc(Cl)cc2)c(N)c1C(=O)NCCc1ccccc1 14.6%, CCOC(=O)c1c(C)c(C(=O)NCc2ccc(Cl)cc2)c(C)n1CC -8.49%, CCC1CCc2nc3sc(C(=O)Nc4ccc(F)c(F)c4)c(N)c3cc2C1 (stereo not given) -12%, COc1ccc(NC(=O)CSc2nc3c(c(=O)[nH]2)CCC3)cc1 -6.96%, Cn1c(-c2ccc(S(=O)(=O)N3CCCC3)cc2)csc1=Nc1ccc(Cl)c(Cl)c1 -21.6%, CC(C)c1ccccc1Oc1c(C(F)(F)F)oc2c(CN3CCN(C)CC3)c(O)ccc2c1=O -4.01%, COc1ccccc1N1CCN(C(=O)c2cc3c(=O)oc4ccc(C)cc4c3s2)CC1 0.75%, CCOc1ccc(-c2nc(CNC(=O)Nc3ccccc3)c(C)o2)cc1 -23.1%, Cc1ccc(CNC(=O)c2cn(C)c3ccc(S(=O)(=O)N4CCOCC4)cc3c2=O)cc1 -8.51%, COc1ccc(NCc2cc3ccc(OC)cc3n(CC(=O)Nc3cccc(OC)c3)c2=O)cc1 1.34%, Cc1ccccc1NC(=O)CSc1nc2ccccc2c2nc(CCn3c(C)nc4ccccc43)nn12 -12.1%, CC(C(O)c1ccc(O)cc1)N1CCC(Cc2ccccc2)CC1 (stereo not given) -17.8%, O=C(COCc1cc(-c2cccs2)on1)NCc1cccc(Cl)c1 -19.4%, Cc1cc(C)c(/C=C/c2onc(C)c2S(=O)(=O)N2CCC(C(=O)Nc3ccc(Cl)cc3C)CC2)c(C)c1 -7.78%, COc1cc(NC(=O)c2nn(-c3ccc(F)cc3)c(=O)n(C)c2=O)cc(OC)c1OC -18.4%, CCn1c(C(=O)N2CCC(C(=O)NCCCOC)CC2)cc2sccc21 -8.73%, Cc1cn(S(=O)(=O)c2ccc(F)c(Cl)c2)cn1 -6.66%, CCOc1ccc(/C=C/c2nc(C#N)c(Nc3ccc(OCC)cc3)o2)cc1 -7.99%, Cc1c(-c2ccccc2)c(=O)oc2c(CN3CCCC3)c(O)ccc12 -29.8%, CCc1ccc(C2CC(=O)NC(NC(=O)c3ccc(C(C)(C)C)cc3)=N2)cc1 (stereo not given) -13%, CC1CC(=O)N(CC(=O)Nc2ccc(F)cc2F)c2ccccc2S1 (stereo not given) 6.04%, O=C(CCCn1ccc2cc(S(=O)(=O)N3CCCC3)ccc21)NCc1ccc(Cl)cc1 -22.7%, COc1ccc(NC(=O)Nc2cccc(-c3cn4cccnc4n3)c2)cc1 -5.6%, O=C(NCCc1ccc(Cl)cc1)c1ccc2c(c1)N(Cc1ccccc1F)C(=O)c1ccccc1S2(=O)=O -12.5%, Cc1nc2ccn(Cc3ccccc3)c(=O)c2cc1C(=O)NCc1ccccc1F -25.8%, COc1cccc(CNC(=O)CN2C(=O)COc3ccc(S(=O)(=O)N4CCCCCC4)cc32)c1 -2.78%, CCOc1ccc(NC(=O)Cn2c(=O)n(Cc3ccc(C(=O)NCc4ccc(C)cc4)cc3)c(=O)c3ccccc32)cc1 -9.6%, CN(C)c1ccc(NC(=O)CN2CCN(CC(=O)Nc3ccc(Br)cc3)CC2)cc1 1.37%, Cc1ccc(CNC(=O)c2cc3c(s2)-c2ccc(Cl)cc2SC3)cc1 1.47%, Cc1ccc(CSC2=Nc3ccccc3C3=NC(CC(=O)NCc4cccs4)C(=O)N23)cc1 (stereo not given) -7.5%, O=c1cc(-c2ccccc2)oc2ccccc12 -3.8% [at 114 µM], Cc1ccc(-c2nc3ncccc3o2)cc1NC(=O)c1ccccc1Br -24.3%, O=C(NCC1CCCO1)c1c[nH]c2ccc(S(=O)(=O)Nc3ccc(F)cc3F)cc2c1=O (stereo not given) -5.16%, CC(C)(C)c1ccc(-c2nc(S(=O)(=O)c3ccccc3)c(N3CCOCC3)o2)cc1 -14.4%, CCOc1ccc(NC(=O)NCCn2nnc3cc(S(=O)(=O)N(C)C)ccc32)cc1 -13.3%, O=C(c1cccc(F)c1)N1CCC(c2c[nH]c3ccccc23)(c2c[nH]c3ccccc23)CC1 -6.57%, COc1ccc(C(=O)Nc2nnc(S(=O)(=O)N3CCC(C)CC3)s2)cc1OC -20.6%, CCN(C(=O)C1CCCN(c2ncnc3onc(-c4ccc(F)cc4)c23)C1)c1ccccc1 (stereo not given) -27.1%, CCOc1ccc(C(CC(=O)Nc2cc(C)c(Cl)cc2OC)N2Cc3ccccc3C2=O)cc1OC (stereo not given) -6.67%
